Measured values reported in PubChem BioAssay AID686978 (National Center for Advancing Translational Sciences (NCATS), 2013).
Screen size: about 420,000 compounds; about 64,000 (15%) were called active. Inconclusive results, whose numbers are uncertain, are shown with a selection of clear calls. The call rests on the fitted dose curve; in most records, active means well fitted inhibition curve with a large enough effect; inconclusive means small, poorly fitted or top-dose-only effect; inactive means flat fitted curve, though single readings scatter. Potencies of inconclusive entries are left out as doubtful fits.
On the % scale 0 is the no-effect control and ±100 the full control effect; potency means the concentration at half of the fitted maximal effect; tags describe the fitted curve by direction and shape.

Assay: qHTS for Inhibitors of human tyrosyl-DNA phosphodiesterase 1 (TDP1): qHTS in cells in absence of CPT; further: nearly all actives have a fitted effect of over 55% in size
Conditions: DT40 Tdp1-/- hTDP1 cells, no CPT, ATP luminescence, 48 h; activity change, negative = growth inhibition: at 46.2 µM (top of the series) unless noted
From the text: Human tyrosyl-DNA phosphodiesterase 1 (TDP1) is a novel repair gene, and we propose to use it as a new target for anticancer drug development. TDP1 is not an essential protein, but under treatment with topoisomerase I poison (camptothecin: CPT), TDP1 works as a critical factor for cell survival. To directly identify novel TDP1 inhibitors active in a cellular environment, we have knocked-out the Tdp1 gene in chicken DT40 cells (Tdp1-/-) and generated a complemented counterpart cells that contains a stable transfection of the human TDP1 gene (Tdp1-/-;hTDP1 cells). For the primary screen, Tdp1-/-;hTDP1 cells will be exposed to small molecules in the presence or absence of CPT, and their growth kinetics will be evaluated after 48 hours by measuring ATP activity. […] The hit compounds will then be evaluated in the presence or absence of CPT using Tdp1-/- cells. […] In tertiary assays, biochemical gel-based assays will be used to assess whether the hit compounds specifically target TDP1.
To this end, we have screened this cell line against the MLSMR in two primary screens. In one screen we add CPT and in the other we screen in the absence of CPT; this AID represents the screen where CPT was absent.
NIH Chemical Genomics Center [NCGC]
NIH Molecular Libraries Probe Centers Network [MLPCN]
Assay Submitter (PI): Yves Pommier, NCI
DT40-hTDP1 cells without 20 nM Camptothecin (add 20 microL of DMSO in 1 L of cell culture medium) were dispensed at 400 cells/5microL/well in tissue culture treated 1536-well white wall/solid bottom assay plates (Greiner Bio-One North America, NC, U.S.A.) using a Multidrop Combi 8 channel dispenser (Thermo Fisher, Waltham, MA, USA). 23 nL compounds and controls were transferred using the pin tool (Kalypsys, San Diego, CA, USA) to the assay plates. The assay plates were then incubated at 37 masculineC for a minimum 48 hr. Three microL of Cell Titer Glo solution was added to the plates and incubated at RT in dark for 30 min. Luminescence was read using ViewLux (Perkin Elmer) with 1 sec exposure slow speed, high gain and 2x binning.
In the case of `COc1ccc(Cl)cc1NC(=O)CCN1CCN(c2ccccc2C)CC1`, the Potency is reported as inconclusive [inhibitor, single point].
In the case of `Cc1cc(=O)oc2cc(OCC(=O)OCC(=O)NCc3ccc4c(c3)OCO4)ccc12`, the “activity change, negative = growth inhibition” value is reported as inactive: -3.17%.
In the case of `COc1ccc([C@H]2C[C@H](n3cc(-c4ccc(F)cc4)nn3)[C@@H](O)CN2CC2CCCCC2)cc1`, the Potency is reported as inconclusive [inhibitor, single point].
With `COc1ccc(-c2csc3ncnc(N4CCN(c5cccc(C)c5C)CC4)c23)cc1` the Potency was inconclusive [inhibitor, single point].
In the case of `COc1ccccc1C1CN(CCNC(=O)c2sccc2Cl)Cc2ccccc2O1` (centres undefined), the “activity change, negative = growth inhibition” value is reported as inactive: -2.35%.
For `COC(=O)c1ccc2c(c1)NC(=O)C(N1CCCCC1)S2` (centres undefined), the Potency was inconclusive [inhibitor, single point].
In the case of `CCN1C(=O)[C@H]2[C@@H](c3ccc(-c4ccc(F)cc4)c(OC)c3)N3CCC[C@@]3(C(=O)OC)[C@H]2C1=O`, the Potency is reported as active: 8.2 µM.
With `CC1(C(=O)Nc2cnc3ccccc3c2)CCN1Cc1ccc(OC(F)(F)F)cc1` (centres undefined) the Potency was inconclusive [inhibitor, single point].
In the case of `Nc1nnnn1-c1ccccc1`, the “activity change, negative = growth inhibition” value is reported as inactive: -0.879%.
For `CC(C)(C)OC(=O)N1CCC(c2c(C(=O)N3CCCCC3)cnn2-c2cccc(F)c2)CC1`, the “activity change, negative = growth inhibition” value was inactive: -6.09%.
With `CCn1c(CN2CCCCCC2=O)nnc1SCc1cnc(-c2ccccc2)s1` the Potency was inconclusive [inhibitor, single point].
With `Cc1cc(/C=N/n2c(COc3ccccc3C)nc3ccccc3c2=O)c(O)c([N+](=O)[O-])c1` the Potency was active: 13 µM.
In the case of `CCn1c(SCC(=O)c2ccccc2)nc2c(c1=O)SC(C)C2` (centres undefined), the Potency is reported as inconclusive [inhibitor, single point].
In the case of `CN(c1ccccc1C(=O)NCc1ccccc1Cl)S(=O)(=O)c1ccccc1`, the Potency is reported as inconclusive [inhibitor, single point].
In the case of `COc1cc2c(c(OC)c1OC)-c1ccc(SC)c(=O)cc1C(NC=O)CC2` (centres undefined), the Potency is reported as active: 0.164 µM.
For `O=C(Nc1ccc(F)cc1F)Nc1ccc(F)cc1F`, the Potency was inconclusive [inhibitor, partial curve].
For `Cc1ccc(C)c(NC(=O)CSc2nnc(-c3cc4occc4n3C)n2-c2ccccc2C)c1`, the Potency was inconclusive [inhibitor, single point].
With `CN(CC(=O)Nc1cccc(F)c1)C(=O)c1cccc(S(=O)(=O)N2CCN(Cc3ccccc3)CC2)c1` the Potency was active: 8.2 µM.
In the case of `Cc1ccc(NC(=O)CCCn2c(=O)c3cccn3c3cccnc32)cc1C`, the Potency is reported as inconclusive [inhibitor, partial curve].
For `COC(=O)c1cc(NCc2ccc3c(c2)OCO3)ccc1N1CCOCC1`, the “activity change, negative = growth inhibition” value was inactive: -21.5%.
In the case of `CCc1ccccc1NC(=O)[C@@H](c1ccccc1)N1Cc2ccccc2C1=O`, the Potency is reported as inconclusive [inhibitor, single point].
For `Cc1ccc(NS(=O)(=O)c2cc3[nH]c(=O)c(=O)[nH]c3cc2C)cc1N(C)C`, the “activity change, negative = growth inhibition” value was inactive: -0.0682%.
For `CCN1C(=O)[C@@H]2[C@@H]3CN(S(=O)(=O)c4ccc(C)cc4)[C@@H](c4ccccc4Cl)[C@@H]3C(=O)C[C@@H]2C1=O`, the Potency was inconclusive [inhibitor, partial curve].
With `CC(C)C(=O)Nc1ccc2nn(-c3ccccc3)nc2c1` the Potency was inconclusive [inhibitor, single point].
With `Clc1cccc(Cl)c1CN1CCN(c2ncccn2)CC1` the Potency was inconclusive [inhibitor, single point].
For `O=C(NC1CCN(Cc2ccccc2)CC1)c1cccc(S(=O)(=O)Nc2ccc(SC(F)F)cc2)c1`, the Potency was inconclusive [inhibitor, single point].
With `COc1cccc(-c2nc(CS(=O)(=O)CC(=O)Nc3c(C)cccc3C)c(C)o2)c1` the Potency was inconclusive [inhibitor, single point].
With `O=[N+]([O-])c1cc([N+](=O)[O-])c(Oc2cncc(Cl)c2)cc1NN1CCCCC1` the “activity change, negative = growth inhibition” value was inactive: -26.4%.
In the case of `c1cnc(-c2nnc3n2CCCCC3)cn1`, the “activity change, negative = growth inhibition” value is reported as inactive: -20.1%.
In the case of `O=C(CSc1ccccn1)N1CCN(c2ncc(C(F)(F)F)cc2Cl)CC1`, the Potency is reported as active: 16.4 µM.
For `Cc1ccnc(NC(=O)CCC(=O)N(CC(=O)NCc2ccccc2)Cc2ccc(F)cc2)c1`, the Potency was inconclusive [inhibitor, single point].
For `Cc1ccc(CN2CCN(/N=C/c3cccnc3)CC2)c(C)c1`, the Potency was inconclusive [inhibitor, single point].
For `Cc1ccc2ccc(C3C(=O)c4ccccc4C3=O)nc2c1`, the Potency was inconclusive [inhibitor, partial curve].
With `O=Cc1cccc(OCc2cn(CC(=O)c3ccc(O)cc3)nn2)c1` the “activity change, negative = growth inhibition” value was inactive: -25.7%.
In the case of `Cc1ccc(S(=O)(=O)N2CCOCC2)cc1NC(=O)CN(C)C1CCS(=O)(=O)C1` (centres undefined), the “activity change, negative = growth inhibition” value is reported as inactive: 1.73%.
In the case of `CC(=O)N1CCc2c(sc3c2c(=O)n(-c2cc(Cl)ccc2C)c(=O)n3Cc2ccccc2F)C1`, the Potency is reported as inconclusive [inhibitor, single point].
In the case of `Cc1ccc(S(=O)(=O)C2(C(=O)N3CCN(c4cc(C)ccc4C)CC3)CC2)cc1`, the Potency is reported as inconclusive [inhibitor, single point].
For `CN1C(=O)CC(N2CCN(CC(=O)N3CCCC3)CC2)C1=O` (centres undefined), the “activity change, negative = growth inhibition” value was inactive: -5.6%.
With `CN1CCCC1CCNc1ccc2oc3ccccc3c(=O)c2c1` (centres undefined) the Potency was inconclusive [inhibitor, single point].
In the case of `O=C(NC1CCCCCC1)C1CCC(CNS(=O)(=O)c2ccc(Br)s2)CC1` (centres undefined), the Potency is reported as inconclusive [inhibitor, single point].
For `COc1ccc(/C=C/C(=O)OCc2cc(=O)n3c(n2)sc2ccccc23)cc1`, the Potency was inconclusive [inhibitor, single point].
In the case of `Cc1cc(OCCn2cc(/C(N)=N/O)c3ccccc32)ccc1Cl`, the Potency is reported as inconclusive [inhibitor, single point].
For `CCN(c1ccccc1)S(=O)(=O)c1cc2c3c(c1)C(C)C(=O)N3CCC2` (centres undefined), the Potency was active: 16.4 µM.
In the case of `Cc1cc(C)c2c(N)c(C(=O)N/N=C/c3ccccc3)sc2n1`, the Potency is reported as inconclusive [inhibitor, single point].
